The values below come from US20250312345A1, “NON-COVALENT INHIBITORS OF THE MAIN PROTEASE OF SARS-COV-2 AND METHODS OF USE” (YALE UNIVERSITY, priority 2022, published 2025).

The subject of assay [1] is infectious SARS-CoV-2. The following applies: footnote g only: Zhang et al., ACS Cent. Sci. 2021; method not marked; read-out: EC50 infectious virus; cited from earlier work.
Assay [2] deals with infectious SARS-CoV-2. Nature of the assay: Antiviral MTT assay (cytopathic effect) in Vero E6 cells. The class given is cell-based. Background: Tetrazolium dyes change colour on reduction, which living cells bring about.
The test system of assay [3] is infectious SARS-CoV-2. In kind it is cell-based. The following applies: Vero E6 cells.

Turning to `O=c1[nH]cc(-c2cc(-c3cc(Cl)cc(OCc4ccc(F)cc4Cl)c3)c(=O)n(-c3cccnc3)c2)c(=O)[nH]1` [Compound 48, 5-(3-(3-Chloro-5-((2-chloro-4-fluorobenzyl)oxy)phenyl)-2-oxo-2H-[1,3′-bipyridin]-5-yl)pyrimidine-2,4(1H,3H)-dione], in assay [1], the EC50 – broadly, the concentration giving half of the maximal effect – was 1.1 ± 0.5 µM.

Regarding `O=c1[nH]cc(-c2cc(-c3cc(Cl)cc(OCc4ccccc4Cl)c3)c(=O)n(-c3cccnc3)c2)c(=O)[nH]1` [Compound 37, 5-(3-(3-Chloro-5-((2-chlorobenzyl)oxy)phenyl)-2-oxo-2H-[1,3′-bipyridin]-5-yl)pyrimidine-2,4(1H,3H)-dione], the “antiviral activity in MTT assay” value in assay [2] is listed as “lacked antiviral activity”. For the same compound, in assay [3], the “antiviral activity in viral plaque assay” value is “showed activity”.

Consider `O=c1[nH]cc(-c2cc(-c3cc(Cl)cc(OCc4ccccc4)c3)c(=O)n(-c3cccnc3)c2)c(=O)[nH]1` [Compound 46, 5-(3-(3-(Benzyloxy)-5-chlorophenyl)-2-oxo-2H-[1,3′-bipyridin]-5-yl)pyrimidine-2,4(1H,3H)-dione], for which the “antiviral activity in MTT assay” value in assay [2] is on record as “not in the MTT assay”. Further, in assay [3], the “antiviral activity in viral plaque assay” value is recorded as “antiviral activity was found”.

Take `O=c1[nH]cc(-c2cc(-c3cc(Cl)c(F)c(OCc4ccccc4Cl)c3)c(=O)n(-c3cccnc3)c2)c(=O)[nH]1` [Compound 44, 5-(3-(3-Chloro-5-((2-chlorobenzyl)oxy)-4-fluorophenyl)-2-oxo-2H-[1,3′-bipyridin]-5-yl)pyrimidine-2,4(1H,3H)-dione]: the “antiviral activity in MTT assay” value in assay [2] is recorded as “lacked antiviral activity”. In addition, in assay [3], the “antiviral activity in viral plaque assay” value is reported as “showed activity”.
